Reference: PMC4336329 (PLoS ONE, 2015)
Screen size: about 310,000 compounds; about 14,000 (4.5%) showed an effect of 50% or more. The effect is printed as a negative number. The list shows a part of the results.

Each compound was assayed against human ether-à-go-go-related gene (hERG) potassium channel (human, UniProt Q12809) (assay: primary screen, population patch clamp on CHO cells stably expressing hERG).
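Further: peak tail current of the secondary pulse compared with the same well before compound.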

human ether-à-go-go-related gene (hERG) potassium channel, sequence (Q12809 whole entry, looked up): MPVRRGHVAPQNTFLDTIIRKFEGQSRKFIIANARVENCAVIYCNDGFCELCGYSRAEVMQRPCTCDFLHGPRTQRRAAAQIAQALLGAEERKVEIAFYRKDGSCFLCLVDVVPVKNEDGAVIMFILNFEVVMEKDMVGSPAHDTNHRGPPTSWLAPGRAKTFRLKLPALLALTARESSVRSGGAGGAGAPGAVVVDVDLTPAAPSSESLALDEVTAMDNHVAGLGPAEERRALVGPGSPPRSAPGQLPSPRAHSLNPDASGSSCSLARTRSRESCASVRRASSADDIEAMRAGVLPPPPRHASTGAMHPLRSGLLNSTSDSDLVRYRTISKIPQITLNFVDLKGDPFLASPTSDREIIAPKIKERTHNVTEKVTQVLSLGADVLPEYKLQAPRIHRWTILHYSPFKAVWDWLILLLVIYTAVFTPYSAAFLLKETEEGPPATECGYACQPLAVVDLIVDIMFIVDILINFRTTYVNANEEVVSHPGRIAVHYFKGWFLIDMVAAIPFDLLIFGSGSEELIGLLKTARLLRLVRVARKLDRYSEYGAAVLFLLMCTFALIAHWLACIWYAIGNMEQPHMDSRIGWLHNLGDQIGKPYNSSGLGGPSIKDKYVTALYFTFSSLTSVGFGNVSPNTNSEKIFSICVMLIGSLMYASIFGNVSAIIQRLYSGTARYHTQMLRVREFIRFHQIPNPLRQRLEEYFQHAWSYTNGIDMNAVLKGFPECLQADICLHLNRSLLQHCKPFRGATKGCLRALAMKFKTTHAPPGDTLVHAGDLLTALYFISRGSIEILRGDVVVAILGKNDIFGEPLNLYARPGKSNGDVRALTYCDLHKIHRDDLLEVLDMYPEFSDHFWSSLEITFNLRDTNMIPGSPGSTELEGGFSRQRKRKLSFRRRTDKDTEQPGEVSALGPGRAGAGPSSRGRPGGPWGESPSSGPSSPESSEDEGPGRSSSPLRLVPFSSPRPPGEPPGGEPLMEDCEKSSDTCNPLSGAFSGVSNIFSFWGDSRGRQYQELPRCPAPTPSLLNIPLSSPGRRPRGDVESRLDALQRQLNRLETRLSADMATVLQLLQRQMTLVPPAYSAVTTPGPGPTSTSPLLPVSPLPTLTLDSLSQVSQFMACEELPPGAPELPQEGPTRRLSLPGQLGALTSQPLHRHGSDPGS

Point of comparison: COc1ccc(C2SCC(C(=O)O)N2C(C)=O)cc1 (stereo not drawn), “hERG current change (%, negative = inhibition) at 10uM” value 18.7%. Against it:
- CC(=O)Nc1ccc(Nc2ncnc3c2cnn3-c2cccc(C)c2)cc1 — lower, 10%
- CN(C)c1c(N)[nH]c2c(c1=O)c(=O)n(C)c(=O)n2C — lower, -7.83%
- O=C1NC(c2ccccc2)=NC1(Nc1ccccn1)C(F)(F)F (stereo not drawn) — lower, -11%
- Cc1ccc(OCC(=O)NNc2c3ccccc3nc3ccccc23)cc1 — lower, 7.76%
- O=C(CCS(=O)(=O)c1ccc(Br)cc1)NCc1cccs1 — lower, -11.5%
- COC(=O)C1=C(C(=O)OC)[C@@H]2N(C)c3ccc(OC)cc3[C@@]23C[C@@H](C(=O)OC)N=C3N1 — lower, -22.9%
- CC(=O)C1=C(C)NC(SCC(N)=O)=C(C#N)C1c1cccs1 (stereo not drawn) — lower, -2.53%
- CCCCN(C(=O)c1ccco1)c1c(N)n(CCC)c(=O)[nH]c1=O — lower, -4.19%
- O=c1[nH]c(=S)n(-c2ccccc2)c(O)c1C=NCc1ccccn1 — lower, -1.82%
- O=C1CC(CC(=O)N/N=C/c2ccccc2[N+](=O)[O-])=NN1 — higher, 21.6%
- Cc1ccc2c(c1)C(=O)CC(c1ccc3c(c1)OCCO3)O2 (stereo not drawn) — lower, -3.68%
- CS(=O)(=O)N(CC(=O)N1CCN(C(c2ccccc2)c2ccccc2)CC1)C1CCCCC1 — lower, -5.65%
- O=c1c2cn[nH]c2[nH]c(=S)n1-c1cccc(Cl)c1 — higher, 24.4%
- Cn1c(=O)n(C)c2cc(NS(C)(=O)=O)ccc21 — lower, 1.86%
- O=C1CC(c2ccc3c(c2)OCO3)c2cc3c(cc2N1)OCCO3 (stereo not drawn) — lower, 13.5%
- Cc1cc(C)nc(NC(=O)CSc2nn(-c3ccccc3)c(=S)s2)n1 — lower, -7.19%
- COc1ccc(/C=N/N(C(C)=O)c2nc(-c3ccc(C)cc3)cs2)cc1 — lower, -9.83%
- O=C(CN1CCN(CN2C(=O)NC3(CCCCCC3)C2=O)CC1)Nc1ccc(F)cc1 — lower, -12.8%
- CC1CCCC(C)N1C(=O)Cc1ccccc1 (stereo not drawn) — lower, -12.1%
- CCN1CCN(C(=O)CCn2c(=O)c3cccn3c3cccnc32)CC1 — lower, 1.82%
- CCOC(=O)/C=C1\CC(=O)Nc2nonc2N1 — lower, -6.52%
- CC1(C)CC(=O)C(N=Nc2cc(Cl)c(Cl)c(Cl)c2)=C(O)C1 — lower, 8.16%
- O=c1c2ccccc2oc2ccc(C#CC3(O)CCCCC3)cc12 — lower, 0.05%
- Cc1ccc(-c2noc(CN(C)C(=O)c3ccc(Br)o3)n2)cc1 — lower, -18.7%
- COc1cccc(Nc2nc3ccccc3nc2-n2nc(C)cc2C)c1 — lower, 18.5%
- COc1ccc(N(C(C)=O)S(=O)(=O)c2cccc3cccnc23)cc1 — lower, -4.27%
- COc1ccc(C(=O)Nc2ccc(S(=O)(=O)Nc3cc(C)nc(C)n3)cc2)cc1 — higher, 20.2%
- O=C(Cc1ccc(-n2c(=O)[nH]c3ccccc3c2=O)cc1)N1CCN(c2ccccc2)CC1 — lower, 5.63%
- CCOc1ccccc1C1C(C(=O)Nc2ccccc2OC)=C(C)Nc2nnnn21 (stereo not drawn) — lower, 4.75%
- Cc1ccc(OCC(=O)N2CCN(S(=O)(=O)c3ccc(Cl)s3)CC2)cc1C — lower, 3.16%
- Cc1onc(-c2ccccc2Cl)c1C(=O)OCC(=O)c1ccc2c(c1)OCCO2 — lower, 7.3%
- CCn1nc(NC(=O)c2ccncc2)c2cc3cc(C)ccc3nc21 — lower, 8.22%
- CC(C)NS(=O)(=O)c1ccc(NC(=O)NC2CCCCC2)cc1 — lower, 1.79%
- CN(CCC#N)C(=O)CC(Cc1ccccc1)C1CCOC(C)(C)C1 (stereo not drawn) — lower, 3.94%
- Cc1ccc(C(=O)Nc2ccc(N3CCN(C(=O)c4ccco4)CC3)cc2)cc1 — lower, 10.4%
- COc1cc(OC)cc(C(=O)NCC2CCCN(C(=O)c3csc(C)n3)C2)c1 (stereo not drawn) — lower, 10.4%
- CC(=O)c1c(C)[nH]c(C(=O)CN2C(=O)NC(C)(c3ccc4c(c3)OCO4)C2=O)c1C (stereo not drawn) — lower, 2.4%
- CCCC(=O)NC(c1ccc(OCC)cc1)c1ccc(OC)c(OC)c1 (stereo not drawn) — lower, -5.42%
- O=C(CSc1nc2cc(Cl)ccc2s1)N1CCCc2ccccc21 — lower, -5.54%
- COc1ccc(CCN=c2c([N+](=O)[O-])nn(-c3cccc(C)c3)n2O)cc1OC — lower, -34.1%
- O=C1CCc2cc(S(=O)(=O)Nc3ccc(F)cc3)cc3c2N1CC3 — lower, -0.534%
- Cc1csc(NC(=O)CCc2ccc(S(=O)(=O)N3CCOCC3)cc2)n1 — lower, -9.05%
- O=C(Nc1ccc(S(=O)(=O)O)cc1)c1ccc2c(c1)S(=O)(=O)c1ccccc1C2=O — lower, 16.1%
- O=C(COC(=O)c1ccc(-c2ccc([N+](=O)[O-])cc2)o1)NC(=O)NC12CC3CC(CC(C3)C1)C2 — lower, 1.93%
- Cc1ccc(C)c(NC(=S)N(CCc2ccncc2)C(C)C)c1 — lower, -42.1%
- CCC(C)c1ccc(NC(=S)Nc2ccc(OC)cc2C)cc1 (stereo not drawn) — lower, -9.65%
- CCCNCc1cc(OC)c(OCC(=O)Nc2ccccc2)cc1Br.Cl — lower, -46.4%
- O=C(/C=C/c1ccc(Cl)cc1Cl)NCCSCc1ccccc1 — lower, 18.3%
- COC(=O)CCC(=O)OC1(C)C(=O)C2=CN(CC(C)C)C(c3ccc(OC)cc3)=CC2=C(Br)C1=O (stereo not drawn) — lower, -8.17%
- Cc1nn(C)cc1S(=O)(=O)Nc1ccc2c(c1)OCCO2 — lower, 12.9%
- Cc1ccc(Cl)cc1Nc1nc(-c2sc(NC(=O)C(C)(C)C)nc2C)cs1 — lower, -14.4%
- COc1ccc(N2CCN(C(=O)c3ccc(N(C)S(=O)(=O)c4ccc(C)cc4)cc3)CC2)cc1 — lower, -45.8%
- CC(NCC(=O)Nc1cc(S(=O)(=O)N2CCCCCC2)ccc1Cl)c1ccccc1.O=C(O)C(=O)O (stereo not drawn) — lower, -8.39%
